Reference: article PMC6736072 (Nucleic Acids Research, 2019)

Biological target: flag-Rod (UniProt P50748 1-2209)
Test: pull-down

Chain of UniProt P50748 (P50748 whole entry): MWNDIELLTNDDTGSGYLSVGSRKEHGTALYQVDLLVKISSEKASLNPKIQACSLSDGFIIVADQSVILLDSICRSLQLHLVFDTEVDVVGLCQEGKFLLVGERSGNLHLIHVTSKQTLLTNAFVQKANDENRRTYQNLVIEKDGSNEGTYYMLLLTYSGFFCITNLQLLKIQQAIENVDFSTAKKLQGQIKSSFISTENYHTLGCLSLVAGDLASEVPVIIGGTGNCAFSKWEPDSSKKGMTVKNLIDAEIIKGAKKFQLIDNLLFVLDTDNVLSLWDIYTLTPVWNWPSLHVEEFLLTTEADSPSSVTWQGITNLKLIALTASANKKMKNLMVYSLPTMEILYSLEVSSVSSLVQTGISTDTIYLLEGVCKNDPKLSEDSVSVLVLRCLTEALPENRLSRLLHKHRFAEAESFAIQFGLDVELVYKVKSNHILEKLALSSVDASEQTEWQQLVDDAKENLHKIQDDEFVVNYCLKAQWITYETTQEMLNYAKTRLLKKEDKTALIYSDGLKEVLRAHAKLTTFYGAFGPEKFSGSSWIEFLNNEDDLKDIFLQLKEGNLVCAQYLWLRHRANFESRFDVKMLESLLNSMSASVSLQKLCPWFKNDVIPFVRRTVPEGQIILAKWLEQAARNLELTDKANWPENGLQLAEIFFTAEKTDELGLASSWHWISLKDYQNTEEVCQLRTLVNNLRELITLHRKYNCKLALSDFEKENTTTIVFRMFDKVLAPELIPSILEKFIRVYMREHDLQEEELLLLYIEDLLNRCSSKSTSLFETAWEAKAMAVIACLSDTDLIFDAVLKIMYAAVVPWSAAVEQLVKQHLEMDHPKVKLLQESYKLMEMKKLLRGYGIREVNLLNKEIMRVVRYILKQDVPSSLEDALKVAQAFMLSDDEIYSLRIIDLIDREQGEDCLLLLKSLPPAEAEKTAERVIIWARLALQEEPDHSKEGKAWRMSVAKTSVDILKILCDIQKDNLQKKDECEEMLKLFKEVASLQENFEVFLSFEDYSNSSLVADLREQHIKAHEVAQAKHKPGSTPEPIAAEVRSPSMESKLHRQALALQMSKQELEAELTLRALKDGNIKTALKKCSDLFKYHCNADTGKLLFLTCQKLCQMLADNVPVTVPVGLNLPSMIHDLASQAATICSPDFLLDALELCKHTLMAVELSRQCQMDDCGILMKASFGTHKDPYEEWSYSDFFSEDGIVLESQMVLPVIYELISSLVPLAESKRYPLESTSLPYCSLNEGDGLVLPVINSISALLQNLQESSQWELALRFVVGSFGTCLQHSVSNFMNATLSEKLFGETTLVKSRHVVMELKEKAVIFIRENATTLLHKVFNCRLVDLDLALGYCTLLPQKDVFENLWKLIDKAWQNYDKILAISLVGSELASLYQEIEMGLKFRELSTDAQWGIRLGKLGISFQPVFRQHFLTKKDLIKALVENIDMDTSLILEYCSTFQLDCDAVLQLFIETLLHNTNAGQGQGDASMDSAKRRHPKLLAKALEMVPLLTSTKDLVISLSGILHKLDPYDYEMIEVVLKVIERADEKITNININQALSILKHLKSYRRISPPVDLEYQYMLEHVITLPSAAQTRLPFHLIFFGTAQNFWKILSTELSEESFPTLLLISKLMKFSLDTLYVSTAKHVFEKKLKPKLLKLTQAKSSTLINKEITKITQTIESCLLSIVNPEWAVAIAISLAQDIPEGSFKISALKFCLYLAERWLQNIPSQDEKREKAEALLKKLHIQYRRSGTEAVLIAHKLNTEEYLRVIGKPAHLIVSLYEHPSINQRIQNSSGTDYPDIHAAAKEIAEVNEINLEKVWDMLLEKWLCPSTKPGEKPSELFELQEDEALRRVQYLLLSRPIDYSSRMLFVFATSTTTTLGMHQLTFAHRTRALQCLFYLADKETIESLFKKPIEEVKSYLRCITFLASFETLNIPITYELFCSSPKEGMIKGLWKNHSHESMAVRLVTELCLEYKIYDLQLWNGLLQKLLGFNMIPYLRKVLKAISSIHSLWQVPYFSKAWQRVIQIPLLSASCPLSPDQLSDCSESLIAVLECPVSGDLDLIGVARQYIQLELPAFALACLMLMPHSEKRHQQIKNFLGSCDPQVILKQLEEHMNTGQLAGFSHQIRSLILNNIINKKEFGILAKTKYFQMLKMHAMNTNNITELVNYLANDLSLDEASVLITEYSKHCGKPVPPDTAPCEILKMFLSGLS

B1: reconstituted Mad1–Mad2 complex, phosphorylated in vitro by ULK1 (complex)
chain 1: MEDLGENTMVLSTLRSLNNFISQRVEGGSGLDISTSAPGSLQMQYQQSMQLEERAEQIRSKSHLIQVEREKMQMELSHKRARVELERAASTSARNYEREVDRNQELLTRIRQLQEREAGAEEKMQEQLERNRQCQQNLDAASKRLREKEDSLAQAGETINALKGRISELQWSVMDQEMRVKRLESEKQELQEQLDLQHKKCQEANQKIQELQASQEARADHEQQIKDLEQKLSLQEQDAAIVKNMKSELVRLPRLERELKQLREESAHLREMRETNGLLQEELEGLQRKLGRQEKMQETLVGLELENERLLAKLQSWERLDQTMGLSIRTPEDLSRFVVELQQRELALKDKNSAVTSSARGLEKARQQLQEELRQVSGQLLEERKKRETHEALARRLQKRVLLLTKERDGMRAILGSYDSELTPAEYSPQLTRRMREAEDMVQKVHSHSAEMEAQLSQALEELGGQKQRADMLEMELKMLKSQSSSAEQSFLFSREEADTLRLKVEELEGERSRLEEEKRMLEAQLERRALQGDYDQSRTKVLHMSLNPTSVARQRLREDHSQLQAECERLRGLLRAMERGGTVPADLEAAAASLPSSKEVAELKKQVESAELKNQRLKEVFQTKIQEFRKACYTLTGYQIDITTENQYRLTSLYAEHPGDCLIFKATSPSGSKMQLLETEFSHTVGELIEVHLRRQDSIPAFLSSLTLELFSRQTVA
chain 2: [letters of about 200 residues not shown]
modifications: phosphoserine at 546 (in vitro phosphorylation by ULK1)
binding result: binds
